The full data set covers some 21,000 targets. This sample favours those with the largest changes.
Compound: Cc1cc(ccc1-c1ccccc1)C(=O)N1CCCN(CC1)C(=O)CCl [compound 10]
Test: probe-labelled cysteine peptide fold change vs DMSO (competition) (log2 fold change); higher = less target engagement (more negative = stronger competition)
Settings: THP-1, incubation time: 4 h
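Further: competitive profiling in live THP-1 cells: cysteine peptides tagged with an iodoacetamide desthiobiotin (IA-DTB) probe, intensity after compound treatment relative to DMSO-treated cells.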

Chain of UniProt Q6PL18 (Q6PL18 whole entry, looked up): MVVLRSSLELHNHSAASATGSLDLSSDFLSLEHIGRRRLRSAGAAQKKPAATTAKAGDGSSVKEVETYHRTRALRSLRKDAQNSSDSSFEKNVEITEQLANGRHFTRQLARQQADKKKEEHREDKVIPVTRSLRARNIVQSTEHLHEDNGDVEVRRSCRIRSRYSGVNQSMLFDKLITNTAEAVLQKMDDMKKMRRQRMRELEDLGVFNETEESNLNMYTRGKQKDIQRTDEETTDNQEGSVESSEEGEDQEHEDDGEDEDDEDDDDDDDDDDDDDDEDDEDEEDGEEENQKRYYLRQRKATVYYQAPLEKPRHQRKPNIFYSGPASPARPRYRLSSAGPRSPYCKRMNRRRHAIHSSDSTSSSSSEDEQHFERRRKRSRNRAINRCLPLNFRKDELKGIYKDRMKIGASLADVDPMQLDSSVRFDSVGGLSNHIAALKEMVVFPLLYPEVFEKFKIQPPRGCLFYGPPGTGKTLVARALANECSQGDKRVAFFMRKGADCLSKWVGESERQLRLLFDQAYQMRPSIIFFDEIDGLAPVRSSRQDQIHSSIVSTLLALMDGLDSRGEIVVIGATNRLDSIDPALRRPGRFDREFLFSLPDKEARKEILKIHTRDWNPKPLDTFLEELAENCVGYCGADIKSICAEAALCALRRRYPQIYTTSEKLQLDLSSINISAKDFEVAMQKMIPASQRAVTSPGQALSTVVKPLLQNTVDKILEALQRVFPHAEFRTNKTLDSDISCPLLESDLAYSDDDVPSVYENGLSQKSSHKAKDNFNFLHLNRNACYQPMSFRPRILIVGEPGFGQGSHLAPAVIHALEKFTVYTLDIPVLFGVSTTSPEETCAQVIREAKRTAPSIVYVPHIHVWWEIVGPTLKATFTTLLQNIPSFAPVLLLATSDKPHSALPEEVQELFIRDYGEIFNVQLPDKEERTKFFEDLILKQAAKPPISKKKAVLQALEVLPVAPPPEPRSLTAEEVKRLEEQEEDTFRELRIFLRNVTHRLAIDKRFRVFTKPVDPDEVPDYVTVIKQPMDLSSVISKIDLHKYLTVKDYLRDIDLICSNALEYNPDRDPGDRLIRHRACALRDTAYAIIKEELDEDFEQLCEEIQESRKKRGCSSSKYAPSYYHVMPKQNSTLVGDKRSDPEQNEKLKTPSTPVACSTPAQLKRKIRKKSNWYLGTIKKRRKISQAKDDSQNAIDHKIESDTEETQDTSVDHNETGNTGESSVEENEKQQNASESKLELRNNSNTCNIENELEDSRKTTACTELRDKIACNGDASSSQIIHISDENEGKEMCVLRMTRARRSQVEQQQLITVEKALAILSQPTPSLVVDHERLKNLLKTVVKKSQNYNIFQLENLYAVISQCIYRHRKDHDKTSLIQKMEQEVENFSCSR
Chain of UniProt Q8N8A2 (Q8N8A2 whole entry, looked up): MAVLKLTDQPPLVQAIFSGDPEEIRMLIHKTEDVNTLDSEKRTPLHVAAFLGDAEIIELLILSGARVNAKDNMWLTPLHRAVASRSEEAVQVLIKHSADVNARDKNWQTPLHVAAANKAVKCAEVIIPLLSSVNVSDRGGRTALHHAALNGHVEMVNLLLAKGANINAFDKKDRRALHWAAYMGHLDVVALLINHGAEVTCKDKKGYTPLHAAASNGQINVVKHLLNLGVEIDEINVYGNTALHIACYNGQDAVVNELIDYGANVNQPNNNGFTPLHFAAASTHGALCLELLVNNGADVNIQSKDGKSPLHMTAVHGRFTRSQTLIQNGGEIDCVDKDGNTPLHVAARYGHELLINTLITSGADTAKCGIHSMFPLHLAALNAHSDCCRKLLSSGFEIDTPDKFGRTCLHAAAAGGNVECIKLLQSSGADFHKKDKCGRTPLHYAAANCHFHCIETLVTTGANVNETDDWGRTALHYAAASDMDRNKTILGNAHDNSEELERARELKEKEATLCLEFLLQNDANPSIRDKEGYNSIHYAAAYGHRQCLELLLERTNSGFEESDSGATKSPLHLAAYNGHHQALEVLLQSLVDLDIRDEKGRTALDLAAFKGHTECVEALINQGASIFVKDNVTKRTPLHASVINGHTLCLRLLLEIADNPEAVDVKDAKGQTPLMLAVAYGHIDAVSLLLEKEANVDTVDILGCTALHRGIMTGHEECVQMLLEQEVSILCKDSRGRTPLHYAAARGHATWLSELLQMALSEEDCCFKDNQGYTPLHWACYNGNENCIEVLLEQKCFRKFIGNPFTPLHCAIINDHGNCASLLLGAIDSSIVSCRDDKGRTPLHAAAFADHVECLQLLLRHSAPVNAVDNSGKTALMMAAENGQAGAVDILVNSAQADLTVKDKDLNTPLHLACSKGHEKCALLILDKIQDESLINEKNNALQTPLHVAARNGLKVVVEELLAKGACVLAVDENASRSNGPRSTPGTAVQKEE
Chain of UniProt Q9NVP2 (Q9NVP2 whole entry): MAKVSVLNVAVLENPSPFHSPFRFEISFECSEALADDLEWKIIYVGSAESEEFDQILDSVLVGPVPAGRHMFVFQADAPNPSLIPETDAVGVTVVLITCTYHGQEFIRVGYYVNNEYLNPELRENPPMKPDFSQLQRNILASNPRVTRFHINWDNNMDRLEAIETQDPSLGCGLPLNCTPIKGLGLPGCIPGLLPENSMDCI
Chain of UniProt O94973 (O94973 whole entry, looked up): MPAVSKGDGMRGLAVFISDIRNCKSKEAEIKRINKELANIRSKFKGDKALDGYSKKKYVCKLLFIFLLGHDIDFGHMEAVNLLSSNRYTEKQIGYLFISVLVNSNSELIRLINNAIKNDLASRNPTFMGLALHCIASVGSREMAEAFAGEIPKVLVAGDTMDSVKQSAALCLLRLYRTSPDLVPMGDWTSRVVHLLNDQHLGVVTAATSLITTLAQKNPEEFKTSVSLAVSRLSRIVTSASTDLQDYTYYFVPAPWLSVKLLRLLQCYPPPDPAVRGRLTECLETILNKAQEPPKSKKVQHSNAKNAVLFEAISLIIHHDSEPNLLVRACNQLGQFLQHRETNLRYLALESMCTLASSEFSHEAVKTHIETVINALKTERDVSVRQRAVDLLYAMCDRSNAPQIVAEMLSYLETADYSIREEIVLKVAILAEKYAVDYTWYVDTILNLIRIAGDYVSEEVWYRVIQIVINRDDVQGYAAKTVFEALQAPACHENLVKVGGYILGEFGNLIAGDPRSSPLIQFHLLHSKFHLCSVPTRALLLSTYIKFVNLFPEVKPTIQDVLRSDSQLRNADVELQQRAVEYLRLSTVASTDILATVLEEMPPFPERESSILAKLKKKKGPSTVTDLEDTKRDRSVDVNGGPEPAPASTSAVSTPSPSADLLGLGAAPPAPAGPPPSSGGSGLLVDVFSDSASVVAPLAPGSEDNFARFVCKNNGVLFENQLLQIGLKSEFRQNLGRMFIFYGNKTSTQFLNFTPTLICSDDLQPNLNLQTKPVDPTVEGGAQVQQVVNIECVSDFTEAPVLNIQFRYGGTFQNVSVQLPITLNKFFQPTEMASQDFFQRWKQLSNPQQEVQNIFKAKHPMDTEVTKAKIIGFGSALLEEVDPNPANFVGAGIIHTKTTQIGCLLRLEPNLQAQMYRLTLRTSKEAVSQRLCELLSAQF
Chain of UniProt Q9Y487 (Q9Y487 whole entry, looked up): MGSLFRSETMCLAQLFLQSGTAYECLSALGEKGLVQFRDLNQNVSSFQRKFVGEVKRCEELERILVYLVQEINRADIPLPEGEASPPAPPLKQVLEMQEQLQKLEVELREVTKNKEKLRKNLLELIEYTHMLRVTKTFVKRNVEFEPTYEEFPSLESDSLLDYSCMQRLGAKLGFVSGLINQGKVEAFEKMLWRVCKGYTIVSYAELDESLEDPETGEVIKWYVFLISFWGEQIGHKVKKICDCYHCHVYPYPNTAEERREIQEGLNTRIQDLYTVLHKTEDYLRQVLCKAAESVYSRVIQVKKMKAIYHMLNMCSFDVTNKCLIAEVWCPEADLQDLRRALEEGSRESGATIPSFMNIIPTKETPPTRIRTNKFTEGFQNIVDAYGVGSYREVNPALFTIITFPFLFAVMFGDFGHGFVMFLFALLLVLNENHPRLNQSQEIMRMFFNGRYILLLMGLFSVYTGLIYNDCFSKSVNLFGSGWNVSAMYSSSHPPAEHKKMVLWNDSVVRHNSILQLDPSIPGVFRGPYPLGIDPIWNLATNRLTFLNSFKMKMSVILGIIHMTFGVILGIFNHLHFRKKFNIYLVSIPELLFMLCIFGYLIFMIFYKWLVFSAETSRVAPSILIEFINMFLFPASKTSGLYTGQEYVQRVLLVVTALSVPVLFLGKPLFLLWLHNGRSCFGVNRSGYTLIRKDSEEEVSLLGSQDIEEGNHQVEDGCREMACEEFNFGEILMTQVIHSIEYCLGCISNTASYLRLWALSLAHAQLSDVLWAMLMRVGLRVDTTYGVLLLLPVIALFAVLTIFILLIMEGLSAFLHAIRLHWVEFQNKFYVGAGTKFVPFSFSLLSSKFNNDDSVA
Chain of UniProt Q9H9F9 (Q9H9F9 whole entry, looked up): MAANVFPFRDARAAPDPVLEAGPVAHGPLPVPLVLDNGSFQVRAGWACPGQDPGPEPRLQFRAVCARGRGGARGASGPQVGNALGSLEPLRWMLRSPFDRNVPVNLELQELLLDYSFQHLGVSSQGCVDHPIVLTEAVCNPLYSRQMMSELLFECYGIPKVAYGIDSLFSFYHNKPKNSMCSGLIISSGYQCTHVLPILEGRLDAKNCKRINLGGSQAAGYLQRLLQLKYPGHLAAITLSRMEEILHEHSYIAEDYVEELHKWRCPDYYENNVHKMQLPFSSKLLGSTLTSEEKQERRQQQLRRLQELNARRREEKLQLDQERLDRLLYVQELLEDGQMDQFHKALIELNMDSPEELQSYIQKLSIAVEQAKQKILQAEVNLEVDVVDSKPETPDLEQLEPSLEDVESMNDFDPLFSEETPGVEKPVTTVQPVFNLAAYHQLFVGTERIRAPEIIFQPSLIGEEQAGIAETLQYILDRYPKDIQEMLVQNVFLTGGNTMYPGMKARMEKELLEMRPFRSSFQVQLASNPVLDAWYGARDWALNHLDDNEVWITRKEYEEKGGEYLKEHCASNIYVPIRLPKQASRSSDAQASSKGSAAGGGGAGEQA
Chain of UniProt O00244 (O00244 whole entry, looked up): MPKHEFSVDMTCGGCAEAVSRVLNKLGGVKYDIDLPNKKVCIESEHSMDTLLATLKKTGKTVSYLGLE

Target	probe-labelled cysteine peptide fold change (10 µM)	probe-labelled cysteine peptide fold change (50 µM)
ATP6V1B2_P21281_112_KTSCEFTGDILR (UniProt P21281)	-0.0255	-0.0641
ACTR5_Q9H9F9_265_CPDYYENNVHK (UniProt Q9H9F9)	-0.295	-1.35
ASF1B_Q9NVP2_201_GLGLPGCIPGLLPENSMDCI (UniProt Q9NVP2)	-0.169	0.0493
ATP6V0A2_Q9Y487_323_CLIAEVWCPEADLQDLRR (UniProt Q9Y487)	0.171	0.137
ACTN4_O43707_60_KTFTAWCNSHLR<|>ACTN1_P35609_41_KTFTAWCNSHLR (UniProt P35609+O43707)	-0.196	-0.61
ALOX5_P09917_265_LPVTTEMVECSLER (UniProt P09917)	-0.0333	-0.0162
AP2A2_O94973_134_NPTFMGLALHCIASVGSR (UniProt O94973)	0.176	0.278
ATOX1_O00244_12_PKHEFSVDMTCGGCAEAVSR (UniProt O00244)	0.412	-0.82
ATP6V1C1_P21283_376_IDCNLLEFK (UniProt P21283)	0.13	-0.137
ATAD2_Q6PL18_785_NACYQPMSFRPR (UniProt Q6PL18)	-0.0288	-0.333
APAF1_O14727_426_SLLFCDR (UniProt O14727)	0.0119	0.128
ATIC_P31939_363_NGNYCVLQMDQSYKPDENEVR (UniProt P31939)	0.165	-0.0593
ADSL_P30566_180_CCLWIQDLCMDLQNLKR (UniProt P30566)	-0.00936	-0.198
ANKRD44_Q8N8A2_834_FIGNPFTPLHCAIINDHGNCASLLLGAIDSSIVSCRDDK (UniProt Q8N8A2)	-0.206	-0.433

Source: the supplement of paper PMC12067093, “Discovery and optimisation of a covalent ligand for TRIM25 and its application to targeted protein ubiquitination” (Chemical Science, 2025)
